# Measured values: PubChem BioAssay AID485294 (National Center for Advancing Translational Sciences (NCATS), 2010)
# The campaign covered roughly 370,000 compounds. About 150 (0.041%) were called active. The inconclusive results got no clear call from the source; some entries with a clear call stand among them for comparison. The call rests on the fitted dose curve; in most records, active means well fitted inhibition curve with a large enough effect; inconclusive means small, poorly fitted or top-dose-only effect; inactive means flat fitted curve, though single readings scatter. No potency is given beside an inconclusive call; the fits are too rough.
# Molecular target: Beta-lactamase (Escherichia coli (strain K12)) (UniProt P00811)
# Experiment: qHTS Inhibitors of AmpC Beta-Lactamase (assay with detergent); further: nearly all actives have a fitted effect of over 25% in size;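 on activity change, negative = inhibition: 0% = no-compound wells and -100% = no-enzyme wells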
# Settings: AmpC hydrolysis of nitrocefin, absorbance 480 nm, 0.01% Triton; activity change, negative = inhibition: at 114 µM (top of the series)
# Procedure, shortened: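 20 mM phosphate pH 7.0 + 0.01% (detergent screen) or 0.0001% Triton X-100; 5.3 nM AmpC reagent; cpd preinc 15 min RT; nitrocefin (800 uM stock) to start; A480 q20 s × 4 min; Activity was normalised to no-enzyme and no-compound control wells.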
# Potency means the concentration at half of the fitted maximal effect; tags describe the fitted curve by direction and shape.
Structure (SMILES),"activity change, negative = inhibition",Potency
Cc1cn2c(=O)cc(COc3cccc(NC(=O)c4ccccc4Cl)c3)nc2s1,inactive: -6.26%,–
CCc1ccccc1NC(=O)/C(=C/c1ccco1)c1ccccc1,inactive: -13.7%,–
CCn1cc(C2=NOC(C(=O)Nc3c(C)nn(Cc4ccc(F)cc4)c3C)C2)c(C)n1 (stereo not drawn),–,"inconclusive [inhibitor, full curve, poor fit]"
COc1ccc(-c2nnc(SCC(=O)/C(C#N)=C(\C)N)o2)cc1,–,"inconclusive [inhibitor, partial curve, poor fit]"
COc1ccc(-c2nc(NC(=O)c3c(C)noc3C)sc2C)cc1,–,"inconclusive [inhibitor, full curve]"
CC(OC(=O)CNC(=O)c1ccco1)C(=O)Nc1ccc(Cl)cn1 (stereo not drawn),–,"inconclusive [inhibitor, full curve, poor fit]"
Cc1ccc(-c2cc(C(=O)N/N=C/c3ccc([N+](=O)[O-])o3)c3ccccc3n2)o1,–,"inconclusive [inhibitor, full curve]"
CCC(C)(C)C(=O)O[C@H]1C[C@@H](C)C=C2C=C[C@H](C)[C@H](CC[C@@H]3C[C@@H](O)CC(=O)O3)[C@H]21,–,"inconclusive [inhibitor, partial curve]"
COc1ccc(C(=O)N/N=C(\C)c2cccc(NC(=O)c3ccc(F)cc3)c2)c(OC)c1,–,"inconclusive [inhibitor, full curve]"
Cc1ccc(S(=O)(=O)c2nc(-c3ccco3)oc2N2CCC(C)CC2)cc1,inactive: -3.97%,–
CCOC(=O)C1(CC)NC(c2ccc(OC)c(OC)c2)C2C(=O)N(c3cccc(C(C)=O)c3)C(=O)C21 (stereo not drawn),–,"inconclusive [inhibitor, partial curve]"
CCOC(=O)N1CCN(c2nc3c(c(=O)[nH]c(=O)n3C)n2Cc2ccccc2Cl)CC1,–,"inconclusive [inhibitor, full curve]"
Cn1c(Cc2csc(N)n2)nnc1SC/C=C/c1ccccc1,–,"inconclusive [inhibitor, full curve, poor fit]"
COc1ccc(S(=O)(=O)N2CCCCCC2)cc1C(=O)N(C)Cc1ccc(F)cc1,–,"inconclusive [inhibitor, full curve, poor fit]"
Cn1cccc1/C=N/NC(=O)c1sc2ccccc2c1Cl,inactive: 4.09%,–
CCN1CCCC1CNC(=O)Cn1ncc2c(=O)oc3ccc(C)cc3c21 (stereo not drawn),–,"inconclusive [inhibitor, full curve, poor fit]"
COc1cc(CNCCc2ccccc2)cc(Br)c1OCC(=O)Nc1ccccc1C,–,"inconclusive [inhibitor, partial curve]"
COc1ccc(NC(=O)Cn2c(=O)oc3cc(S(=O)(=O)N4CCCC4)ccc32)c(OC)c1,–,"inconclusive [inhibitor, partial curve, poor fit]"
CCOC(=O)NC(=O)CSc1nnc(SCCC(=O)O)s1,–,"inconclusive [inhibitor, partial curve]"
Cc1ccc(Cl)cc1N1CCN(C(=O)c2cn(CC(C)C)c(=O)c3c2c2ccccc2n3C)CC1,inactive: 18.3%,–
CCCN1CCCc2cc(CN)ccc21,–,"inconclusive [inhibitor, full curve]"
CCN(CC)S(=O)(=O)c1ccc(=O)n(CC(=O)N2CCCc3cc(C)ccc32)c1,–,"inconclusive [inhibitor, partial curve, poor fit]"
COc1ccccc1-n1c(SCC(=O)O)nc2c(sc(=S)n2-c2ccc(C)c(C)c2)c1=O,inactive: 2.57%,–

Structure (SMILES),"activity change, negative = inhibition",Potency
O=C(Nc1ccc(N2CCCC2)c(Cl)c1)c1ccc([N+](=O)[O-])cc1,–,"inconclusive [inhibitor, full curve, poor fit]"
Cc1cc(C)nc(/N=C2\NC(=O)CC(C(=O)O)N2c2ccc(Cl)cc2)n1 (stereo not drawn),–,"inconclusive [inhibitor, partial curve]"
Cc1cccnc1NC(=S)NC(=O)c1cccs1,inactive: -10.2%,–
Cn1c(C(C#N)/C(=N\S(=O)(=O)c2cccs2)c2ccccc2)nc2ccccc21 (stereo not drawn),–,"inconclusive [inhibitor, full curve]"
CCS(=O)(=O)N1CCC(C(=O)NCc2ccco2)CC1,inactive: 2.77%,–
Cc1ccc(-c2c(C(=O)N/N=C/c3ccsc3)nnn2-c2nonc2N)cc1,–,"inconclusive [inhibitor, full curve, poor fit]"
CC(NS(=O)(=O)c1ccc(OCC(=O)NCc2ccccn2)cc1)c1ccccc1 (stereo not drawn),–,"inconclusive [inhibitor, partial curve]"
COc1cc(C(=O)O)nc2ccccc12,–,"inconclusive [inhibitor, partial curve, poor fit]"
COc1cccc(C(=O)NN=C2CCCC2)c1,–,"inconclusive [inhibitor, partial curve, poor fit]"
CN(C)c1ccc(/C=[N+](\[O-])C(C)(C)/C=N/O)cc1,inactive: -12.5%,–
COc1ccc([C@@H]2[C@@H]3C(=O)N(C(C)(C)C)C(=O)[C@@H]3[C@]3(Cc4ccccc4)C(=O)N(c4cccc(C)c4)C(=O)N23)cc1,–,"inconclusive [inhibitor, full curve, poor fit]"
CC(Oc1ccc(Cl)cc1Cl)c1ccnc(N)n1 (stereo not drawn),inactive: 5.97%,–
O=C(Nc1cccnc1)C1COc2ccccc2O1 (stereo not drawn),inactive: -3.56%,–
Cc1ccc(C2=NN(S(C)(=O)=O)C(c3cccs3)C2)cc1 (stereo not drawn),inactive: -13.2%,–
Cc1sc2c3ccsc3ccc2[n+]1C,–,"inconclusive [inhibitor, single point]"
Cc1ccc(OCCNc2ccc(S(=O)(=O)N3CCCC3)cn2)cc1,inactive: 0%,–
CCC(C)[C@H](N)c1nnc(SCC(=O)Nc2ccc(C)cc2C)o1 (stereo partly drawn),–,"inconclusive [inhibitor, full curve, poor fit]"
CC(C)COc1ccc(Nc2ncnc3ccc(Br)cc23)cc1,inactive: -8.42%,–
Cc1cc(C)n2cc(CSCC(=O)O)nc2n1,–,"inconclusive [inhibitor, partial curve, poor fit]"
COc1cccc(CNC(=O)COC(=O)c2nc(Cl)c(Cl)c(Cl)c2Cl)c1,–,"inconclusive [inhibitor, full curve]"
Cc1cccc(-c2nnc(SCCC(=O)N3CCOCC3)o2)c1,inactive: -6.17%,–
COc1ccc2c(c1)-c1nc(/N=C/c3ccc(O)c(OC)c3)sc1CC2,inactive: -16.6%,–
O=C(NCc1ccco1)C1CCN(C(=O)c2ccc(Cl)cc2Cl)CC1,inactive: 2.7%,–

Structure (SMILES),"activity change, negative = inhibition",Potency
O=C(Nc1ccc2oc(-c3ccccc3)nc2c1)C1CCCO1 (stereo not drawn),–,"inconclusive [inhibitor, partial curve]"
Cc1ccc(/C=N/NC(=O)CSc2nc3ccccc3[nH]2)o1,inactive: -5.45%,–
N#Cc1ccc(-c2cccnc2)nc1SCc1ccc(Cl)c(Cl)c1,–,"inconclusive [inhibitor, partial curve, poor fit]"
COC(=O)C1CCCN1S(=O)(=O)c1ccc([N+](=O)[O-])cc1 (stereo not drawn),–,"inconclusive [inhibitor, partial curve, poor fit]"
CC(=O)[C@@H]1[C@@H](C(=O)c2ccccc2)[C@]2(C(=O)Nc3ccccc32)[C@H]2C=Cc3cc(F)ccc3N12,–,"inconclusive [inhibitor, full curve]"
CC1(C2CC2)NC(=O)N(CC(=O)N2CCN(c3ccccc3Cl)CC2)C1=O (stereo not drawn),inactive: 5.07%,–
C[C@H]1CN=C(Nc2ccccc2)N1CCCC1CCCC1,–,"inconclusive [inhibitor, single point]"
CC(C)Cn1c(CN(C)Cc2ccccc2)nc2c1c(=O)n(C)c(=O)n2C,–,"inconclusive [inhibitor, full curve, poor fit]"
CCOc1ccc(S(=O)(=O)Nc2ccc(C(=O)N3CCC3)cc2)cc1,–,"inconclusive [inhibitor, full curve]"
Cc1cc2cc(CCNC(=O)CC(C)(C)C)c(=O)[nH]c2cc1C,–,"inconclusive [inhibitor, full curve, poor fit]"
COc1ccc(C2c3c(-c4ccccc4O)n[nH]c3C(=O)N2CCc2ccccc2)cc1 (stereo not drawn),inactive: -4.62%,–
Clc1cccc(OCCCCN2CCCCC2)c1,–,"inconclusive [inhibitor, full curve, poor fit]"
CCCCOc1ccc(NC(=O)CN2CCN(C(=O)OCC)CC2)cc1,inactive: -11.1%,–
CSc1nnc(C)c(=O)[nH]1,–,"inconclusive [inhibitor, single point]"
CCOc1ccc(N2CC(C(=O)NCCN3C(=O)S/C(=C\c4cccnc4)C3=O)CC2=O)cc1 (stereo not drawn),–,"inconclusive [inhibitor, partial curve]"
CCCS(=O)(=O)c1c(S(=O)(=O)CCC)c2c3ccccc3ccn2c1C(N)=O,–,"inconclusive [inhibitor, full curve, poor fit]"
CCC1CCCCN1CCCNC(=O)c1ccc2c(c1)sc1nc(-c3ccc(F)cc3)cn12 (stereo not drawn),inactive: 0.919%,–
CCc1nn2c(=O)cc(CSCC(=O)Nc3ccccc3Cl)nc2s1,–,"inconclusive [inhibitor, single point]"
O=C1CCCN1CCCNc1ncnc2c1cnn2-c1ccc(Cl)cc1,–,"inconclusive [inhibitor, full curve, poor fit]"
Cc1nnc(SCC(=O)Nc2nccs2)s1,–,"inconclusive [inhibitor, partial curve]"
Cc1ccc(C)c(NC(=O)CSc2nnc(C)n3c2cc2occc23)c1,–,"inconclusive [inhibitor, single point]"
C=CCn1c(COc2cccc(C)c2C)nnc1SCC(=O)N1CCN(c2ccccc2)CC1,–,"inconclusive [inhibitor, single point]"
